The list shows a part of the results.
Experiments:
Assay in all cases: glycan array binding signal (z-score within array); higher = stronger binding
Conditions in all cases: glycan notation: IUPAC condensed, linker removed
[1] = molecular target: Neu5Ac(a2-3)Gal(b1-4)GlcNAc(b1-3)Gal(b1-4)GlcNAc(b1-3)Gal(b1-4)GlcNAc
Outline: (§1)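 Glycan array data came from 3228 arrays in the Consortium for Functional Glycomics database, and only arrays with an available protein sequence were kept. Glycan names were put into IUPAC-condensed notation, and columns mapping to the same glycan were averaged. The binding signal is a within-array Z-score, averaged across arrays of one protein sequence run at different concentrations or buffers and across linkers. A negative Z-score can be read as non-binding.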

[2] = molecular target: Neu5Ac(a2-3)Gal(b1-4)GlcNAc(b1-3)Gal(b1-4)GlcNAc(b1-3)Gal(b1-4)GlcNAc(b1-2)Man(a1-3)[Neu5Ac(a2-3)Gal(b1-4)GlcNAc(b1-3)Gal(b1-4)GlcNAc(b1-3)Gal(b1-4)GlcNAc(b1-2)Man(a1-6)]GalNAc
Outline: as §1

[3] = molecular target: Neu5Ac(a2-3)Gal(b1-4)GlcNAc(b1-3)Gal(b1-4)GlcNAc(b1-3)GalNAc
Outline: as §1

[4] = molecular target: Neu5Ac(a2-3)Gal(b1-4)GlcNAc(b1-3)Gal(b1-4)GlcNAc(b1-3)[Neu5Ac(a2-3)Gal(b1-4)GlcNAc(b1-3)Gal(b1-4)GlcNAc(b1-6)]GalNAc
Outline: as §1

[5] = molecular target: Neu5Ac(a2-3)Gal(b1-4)GlcNAc(b1-3)Gal(b1-4)GlcNAc(b1-6)[Gal(b1-3)]GalNAc
Outline: as §1

[6] = molecular target: Neu5Ac(a2-3)Gal(b1-4)GlcNAc(b1-3)Gal(b1-4)[Fuc(a1-3)]GlcNAc
Outline: as §1

[7] = molecular target: Neu5Ac(a2-3)Gal(b1-4)GlcNAc(b1-3)GalNAc
Outline: as §1

[8] = molecular target: Neu5Ac(a2-3)Gal(b1-4)GlcNAc(b1-3)[Neu5Ac(a2-3)Gal(b1-4)GlcNAc(b1-6)]GalNAc
Outline: as §1

[9] = molecular target: Neu5Ac(a2-3)Gal(b1-4)GlcNAc(b1-6)GalNAc
Outline: as §1

[10] = molecular target: Neu5Ac(a2-3)Gal(b1-4)GlcNAc(b1-6)[Gal(b1-3)]GalNAc
Outline: as §1

[11] = molecular target: Neu5Ac(a2-3)Gal(b1-4)GlcNAc(b1-6)[Neu5Ac(a2-3)Gal(b1-3)]GalNAc
Outline: as §1

[12] = molecular target: Neu5Ac(a2-3)Gal(b1-4)GlcNAc6S
Outline: as §1

[13] = molecular target: Neu5Ac(a2-3)Gal(b1-4)[Fuc(a1-3)]GlcNAc
Outline: as §1

[14] = molecular target: Neu5Ac(a2-3)Gal(b1-4)[Fuc(a1-3)]GlcNAc(b1-2)Man
Outline: as §1

[15] = molecular target: Neu5Ac(a2-3)Gal(b1-4)[Fuc(a1-3)]GlcNAc(b1-3)Gal
Outline: as §1

[16] = molecular target: Neu5Ac(a2-3)Gal(b1-4)[Fuc(a1-3)]GlcNAc(b1-3)Gal(b1-4)GlcNAc
Outline: as §1

[17] = molecular target: Neu5Ac(a2-3)Gal(b1-4)[Fuc(a1-3)]GlcNAc(b1-3)Gal(b1-4)[Fuc(a1-3)]GlcNAc(b1-3)Gal(b1-4)[Fuc(a1-3)]GlcNAc
Outline: as §1

[18] = molecular target: Neu5Ac(a2-3)Gal(b1-4)[Fuc(a1-3)]GlcNAc(b1-3)GalNAc
Outline: as §1

[19] = molecular target: Neu5Ac(a2-3)Gal(b1-4)[Fuc(a1-3)]GlcNAc(b1-6)[Gal(b1-3)]GalNAc
Outline: as §1

[20] = molecular target: Neu5Ac(a2-3)Gal(b1-4)[Fuc(a1-3)]GlcNAc(b1-6)[Neu5Ac(a2-3)Gal(b1-3)]GalNAc
Outline: as §1

[21] = molecular target: Neu5Ac(a2-3)Gal(b1-4)[Fuc(a1-3)]GlcNAc6S
Outline: as §1

[22] = molecular target: Neu5Ac(a2-3)Gal6S(b1-4)GlcNAc
Outline: as §1

[23] = molecular target: Neu5Ac(a2-3)Gal6S(b1-4)[Fuc(a1-3)]GlcNAc
Outline: as §1

Neu5Ac(a2-3)GalNAc = molecular target: Neu5Ac(a2-3)GalNAc
Outline: as §1

[24] = molecular target: Neu5Ac(a2-3)GalNAc(b1-4)GlcNAc
Outline: as §1

[25] = molecular target: Neu5Ac(a2-3)[GalNAc(b1-4)]Gal(b1-4)Glc
Outline: as §1

[26] = molecular target: Neu5Ac(a2-3)[GalNAc(b1-4)]Gal(b1-4)GlcNAc
Outline: as §1

[27] = molecular target: Neu5Ac(a2-3)[GalNAc(b1-4)]Gal(b1-4)GlcNAc(b1-3)GalNAc
Outline: as §1

[28] = molecular target: Neu5Ac(a2-3)[Neu5Ac(a2-6)]GalNAc
Outline: as §1

Neu5Ac(a2-6)Gal = molecular target: Neu5Ac(a2-6)Gal
Outline: as §1

[29] = molecular target: Neu5Ac(a2-6)Gal(b1-3)GlcNAc(b1-3)[Gal(b1-4)GlcNAc(b1-6)]Gal(b1-4)Glc
Outline: as §1

Neu5Ac(a2-6)Gal(b1-4)Glc = molecular target: Neu5Ac(a2-6)Gal(b1-4)Glc
Outline: as §1

[30] = molecular target: Neu5Ac(a2-6)Gal(b1-4)GlcNAc
Outline: as §1

[31] = molecular target: Neu5Ac(a2-6)Gal(b1-4)GlcNAc(b1-2)Man
Outline: as §1

[32] = molecular target: Neu5Ac(a2-6)Gal(b1-4)GlcNAc(b1-2)Man(a1-3)Man(b1-4)GlcNAc(b1-4)GlcNAc
Outline: as §1

[33] = molecular target: Neu5Ac(a2-6)Gal(b1-4)GlcNAc(b1-2)Man(a1-3)[Gal(b1-4)GlcNAc(b1-2)Man(a1-6)]Man(b1-4)GlcNAc(b1-4)GlcNAc
Outline: as §1

[34] = molecular target: Neu5Ac(a2-6)Gal(b1-4)GlcNAc(b1-2)Man(a1-3)[GlcNAc(b1-2)Man(a1-6)]Man(b1-4)GlcNAc(b1-4)GlcNAc
Outline: as §1

[35] = molecular target: Neu5Ac(a2-6)Gal(b1-4)GlcNAc(b1-2)Man(a1-3)[GlcNAc(b1-4)][Neu5Ac(a2-6)Gal(b1-4)GlcNAc(b1-2)Man(a1-6)]Man(b1-4)GlcNAc(b1-4)GlcNAc
Outline: as §1

B1: Cohesin-hDC-ASGPR (Homo sapiens) (protein)
chain: LDDLDAVRIKVDTVNAKPGDTVRIPVRFSGIPSKGIANCDFVYSYDPNVLEIIEIEPGDIIVDPNPDKSFDTAVYPDRKIIVFLFAEDSGTGAYAITKDGVFATIVAKVKEGAPNGLSVIKFVEVGGFANNDLVEQKTQFFDGGANVGDTTEPATPTTPVTTPTTTDDLDAASQNSKFQRDLVTLRTDFSNFTSNTVAEIQALTSQGSSLEETIASLKAEVEGFKQERQAGVSELQEHTTQKAHLGHCPHCPSVCVPVHSEMLLRVQQLVQDLKKLTCQVATLNNNASTEGTCCPVNWVEHQDSCYWFSHSGMSWAEAEKYCQLKNAHLVVINSREEQNFVQKYLGSAYTWMGLSDPEGAWKWVDGTDYATGFQNWKPGQPDDWQGHGLGGGEDCAHFHPDGRWNDDVCQRPYHWVCEAGLGQTSQESHHHHHH
- glycan array binding signal (z-score) [1]: -0.498
- glycan array binding signal (z-score) [2]: 0.562
- glycan array binding signal (z-score) [3]: -0.332
- glycan array binding signal (z-score) [4]: -0.339
- glycan array binding signal (z-score) [5]: -0.454
- glycan array binding signal (z-score) [6]: -0.512
- glycan array binding signal (z-score) [7]: -0.312
- glycan array binding signal (z-score) [8]: -0.495
- glycan array binding signal (z-score) [9]: 2.59
- glycan array binding signal (z-score) [10]: -0.449
- glycan array binding signal (z-score) [11]: -0.52
- glycan array binding signal (z-score) [12]: -0.518
- glycan array binding signal (z-score) [13]: -0.493
- glycan array binding signal (z-score) [14]: -0.431
- glycan array binding signal (z-score) [15]: -0.492
- glycan array binding signal (z-score) [16]: -0.278
- glycan array binding signal (z-score) [17]: -0.426
- glycan array binding signal (z-score) [18]: 0.541
- glycan array binding signal (z-score) [19]: -0.487
- glycan array binding signal (z-score) [20]: -0.373
- glycan array binding signal (z-score) [21]: -0.488
- glycan array binding signal (z-score) [22]: -0.517
- glycan array binding signal (z-score) [23]: -0.507
- glycan array binding signal (z-score) (Neu5Ac(a2-3)GalNAc): -0.494
- glycan array binding signal (z-score) [24]: -0.511
- glycan array binding signal (z-score) [25]: 2.91
- glycan array binding signal (z-score) [26]: 2.55
- glycan array binding signal (z-score) [27]: 1.83
- glycan array binding signal (z-score) [28]: -0.297
- glycan array binding signal (z-score) (Neu5Ac(a2-6)Gal): -0.515
- glycan array binding signal (z-score) [29]: -0.51
- glycan array binding signal (z-score) (Neu5Ac(a2-6)Gal(b1-4)Glc): -0.501
- glycan array binding signal (z-score) [30]: -0.421
- glycan array binding signal (z-score) [31]: -0.304
- glycan array binding signal (z-score) [32]: -0.509
- glycan array binding signal (z-score) [33]: -0.498
- glycan array binding signal (z-score) [34]: -0.519
- glycan array binding signal (z-score) [35]: -0.511

From the supplement of paper PMC8728848
